3 compounds from patent US20260284186A1, “[…] MODIFIERS FOR THE TREATMENT OF SUBJECTS WITH UNDER[…] SYSTEMS AND COMPOSITIONS THEREOF” (priority 2023, published 2026) can be followed below.

Structures are written as SMILES.

In this test the test system is SARS-COV-2 RBD. Briefly: Effect of different CDNs on the biological response, Example 10. More on the design: species or system mice. The conditions noted are these: mouse, in vivo.
Turning to `Nc1ncnc2c1ncn2[C@@H]1O[C@@H]2COP(=O)(O)O[C@H]3[C@@H](O)[C@H](n4cnc5c(N)ncnc54)O[C@@H]3COP(=O)(O)O[C@H]2[C@H]1O` [CDA, cyclic bis(3′-5′) diadenylic acid], the “Order of intensity of antibody response, avidity/inhibition and neutralization against SARS-COV-2” value is given as “superior responses”.
Take `Nc1ncnc2c1ncn2C1OC2COP(=O)(O)OC3C(COP(=O)(O)OC2C1O)OC(n1cnc2c(=O)[nH]cnc21)C3O` (stereo not drawn) [c-IAMP]: the “Order of intensity of antibody response, avidity/inhibition and neutralization against SARS-COV-2” value came out at 3.
In the case of `O=c1[nH]cnc2c1ncn2[C@@H]1O[C@@H]2COP(=O)(O)O[C@H]3[C@@H](O)[C@H](n4cnc5c(=O)[nH]cnc54)O[C@@H]3COP(=O)(O)O[C@H]2[C@H]1O` [c-di-IMP], the “Order of intensity of antibody response, avidity/inhibition and neutralization against SARS-COV-2” value stood at 2.
